Results: the supplement of paper PMC11417369
Some of the results follow.

These sequences were tested on PfAP2-HC AP2 domain (GST-tagged) (assay: gcPBM binding intensity (ln(normalized median fluorescence intensity)); higher = stronger DNA binding).
How it was run: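 An Agilent 4 × 180k array carrying primer-extended double-stranded 36-bp intergenic genomic probes and negative controls received GST-tagged P. falciparum DNA-binding domains expressed in E. coli, about 25 μg on average, for 1 h. The binding buffer contained 1× PBS, 1% milk, 0.2 mg/ml BSA, 0.5% salmon testes DNA and 0.03% Triton X-100. Binding intensity is the top Masliner-normalised natural-log median intensity across replicate spots of either probe orientation, read after Alexa488 anti-GST antibody staining and a 488 nm scan.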

Sequence | gcPBM binding intensity (ln)
TATAAATAAAAGTGTACACACATTAAAATCAAACGT [CACACA_site5316] | 10.1
ATATGTACAAAATAAGCACACACAAAAAAAAAAAAA [CACACA_site8984] | 10.1
AAAAAAAAAAAAAATATATATATATATATATATATA [CACACA_negctrl_site540] | 10
TTTTTTTTTTTTTTTTGTACATAAATTTTTATTAGA [XGTACX_site6409] | 9.08
TTTTTTTTTTTTTTTGCACACTTAAATTTGGTGGCT [CACACA_site5319] | 9.5
GCTTAATACAGAATAACACACAAAATAAATAAATAA [CACACA_site4041] | 9.97
CATATAATAAATAATTGTACTTGATATAATATTATG [XGTACX_site3562] | 9.56
TCTTGATTAACTTAAAAAAAAAAAAAAAAAAAAAAA [CACACA_negctrl_site458] | 8.96
GACATATATACCAAACGTACATATGTGCAAGCATAA [XGTACX_site3089] | 9.72
TTGGCTATAGCCAATTGTACTTTTTCTCTTTGGCTT [XGTACX_site1119] | 9.5
TATATTTGTGCGTGTACACATTTGAAAAAATATATA [CACACA_site5079] | 9.61
ATAAATTATAATAACTGTACAAAAATAATATATTCA [XGTACX_site1856] | 9.72
AATAATAATAAAAAGGTGCTGAAATATTTTTATTAT [GTGCAC_site9763] | 9.66
TATATAATTATTTTTTGTACTCATAATAATATGAAA [XGTACX_site289] | 9.37
ATTATTAAGGTTTATTCAAAAAAGACGTTTTTAAAT [CACACA_negctrl_site1059] | 9.34
AGACACGTATACGATGCACACGTATGCTTTATATAT [CACACA_site9363] | 9.83
TATGAGAAAAAAAGTACATGCACAAAATGTATATGT [TGCATGCA_site789] | 9.79
CAACATTGTTCCTATTGTACATGAACTGTTCATACG [XGTACX_site4070] | 9.61
ATTATATAAACCAAATGTACAAAAAGGTCGTAGTGG [XGTACX_site1298] | 10.2
TATAATATATGTATATGTACTTATGTTGAGAAACAT [XGTACX_site2117] | 9.49
GAATAATATATATGTTCACACATGGTCTTTATTATA [CACACA_site5457] | 9.78
GTTATATAAACATATGCATGTGAAGTGTTTATTAAT [TGCATGCA_site183] | 9.8
CTTATTTACTATTTTTCACACATTACAGATAAACAA [CACACA_site6095] | 9.53

Sequence | gcPBM binding intensity (ln)
TAAGTTTTGTTTTTTTGTACTCATTCATACTATCAT [XGTACX_site3638] | 9.77
TAAATATATATATATAGTACAATATAATTATGATAT [XGTACX_site258] | 9.75
TCATTGAAAAAAATCTGTACTGACTATATAGTTGCA [XGTACX_site1566] | 9.4
TATATATATATAATTGCACACATCAAGTTTGATGTT [CACACA_site1288] | 10.2
GTTGTATACAATAATGTGCACATATTAATTTGAACT | 9.88
AAATGTACAGGACGCACACACATATTTATATTTATA [CACACA_site7689] | 10.2
TTTTTTTTTCCTTTTTTTTAAATATTAAAAATGGGA [TGCATGCA_negctrl_site494] | 9.25
TTTTACATCATATATAGTACATATATTATACATATA [XGTACX_site8590] | 9.66
TATATATATATAAGTAGTACAATAATATATTATTTT [XGTACX_site6450] | 9.75
AATATAATATTATATAGTACATATTTCTTTTATTTT [XGTACX_site22] | 9.68
TCTTGATACAAACATTTAAATAAATAAATAAAAAAA [GTGCAC_negctrl_site41] | 9.32
AAAATACACGCATACACACACACACCGACACATATA [CACACA_site4523] | 10.7
TGTTGTGATATATTAAAATCGTCCCTTATAATTTTA [GTGCAC_negctrl_site595] | 9.44
TAATATTATATTTATAGTACATATAATATATATATA [XGTACX_site2964] | 9.44
GAACACTAATAATGTTGTACACGTAATTATATATTT [XGTACX_site777] | 9.82
AAACACACACACAAATGTACATATATATATATATTT [XGTACX_site5090] | 10.3
ATATATTTTCATTTTACACACAAATAAAGATAATTT [CACACA_site2996] | 9.76
AAAATAAATAAAAAAAGTACATATATAATTTATAAA [XGTACX_site2411] | 9.78
TAAATTAATAAAAAGTGTACATAATATACATATATA [XGTACX_site8604] | 9.76
TACAATACCGTACAGGTGCAACTAGCCAAAAAAAAG | 9.75
ATAATTAAAAAAGGAATATATATATATATATATATA [GTGCAC_negctrl_site343] | 9.46
CGTATGACATAATATTGTACTTTTGATATACATCAT [XGTACX_site7366] | 9.58
